In publication PMC9008061 one finds binding data, which are given here for four molecules.

The chains behind the UniProt entries cited, without tags or fusion partners. Where a name states a change or a piece, a line headed by the entry shows the natural chain unless it says otherwise.
UniProt P43694: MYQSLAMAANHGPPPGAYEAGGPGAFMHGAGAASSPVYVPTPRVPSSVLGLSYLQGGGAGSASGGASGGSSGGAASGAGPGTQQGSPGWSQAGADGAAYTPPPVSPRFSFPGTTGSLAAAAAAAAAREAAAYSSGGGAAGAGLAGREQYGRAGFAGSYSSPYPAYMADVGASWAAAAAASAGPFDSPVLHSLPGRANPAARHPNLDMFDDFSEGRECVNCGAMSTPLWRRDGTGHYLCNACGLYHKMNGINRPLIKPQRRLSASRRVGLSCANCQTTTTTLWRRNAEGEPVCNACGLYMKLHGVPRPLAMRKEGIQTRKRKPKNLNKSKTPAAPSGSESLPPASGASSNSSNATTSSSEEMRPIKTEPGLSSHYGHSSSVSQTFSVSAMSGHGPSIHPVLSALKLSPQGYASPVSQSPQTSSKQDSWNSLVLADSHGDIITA

Results are given in words; binding and its absence hold for the method and conditions named. Binding seen in cells or lysates may run through a third protein. Some results given as binding are weak or reduced against the parent protein; the word gives no strength. Sequences can lack the tags named with a protein.

Test [1] addresses T1, 3xFLAG-tagged estrogen-related receptor γ (3xFLAG-ERRγ) (human) (UniProt P62508).
T1 sequence: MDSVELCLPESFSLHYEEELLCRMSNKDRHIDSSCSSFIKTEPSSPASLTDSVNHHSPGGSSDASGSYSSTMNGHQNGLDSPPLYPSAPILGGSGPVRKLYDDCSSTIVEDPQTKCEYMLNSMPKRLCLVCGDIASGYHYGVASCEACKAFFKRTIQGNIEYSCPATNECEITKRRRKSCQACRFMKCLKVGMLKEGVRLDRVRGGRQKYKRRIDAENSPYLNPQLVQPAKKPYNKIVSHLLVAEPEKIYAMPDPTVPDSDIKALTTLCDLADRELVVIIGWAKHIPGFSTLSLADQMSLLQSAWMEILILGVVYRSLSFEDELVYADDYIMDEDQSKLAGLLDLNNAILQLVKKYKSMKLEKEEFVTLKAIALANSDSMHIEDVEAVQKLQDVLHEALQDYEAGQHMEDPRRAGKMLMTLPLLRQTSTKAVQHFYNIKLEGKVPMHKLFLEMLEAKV
Briefly: co-IP; nuclear lysate of AD-293 transfected with GATA4-HA, 3xFLAG-ERRγ and PGC-1α-Myc/His; lysis buffer 10 mM HEPES pH7.9, 3 mM MgCl2, 5 mM KCl, 150 mM NaCl, 0.5% NP-40, benzonase; IP with antibodies to FLAG or HA epitope tags on magnetic beads, 30 min at 4 °C; immunoblot.

Test [2] deals with T2, FLAG-tagged estrogen-related receptor γ (ERRγ), adenovirally overexpressed (human) (UniProt P62508).
T2 sequence: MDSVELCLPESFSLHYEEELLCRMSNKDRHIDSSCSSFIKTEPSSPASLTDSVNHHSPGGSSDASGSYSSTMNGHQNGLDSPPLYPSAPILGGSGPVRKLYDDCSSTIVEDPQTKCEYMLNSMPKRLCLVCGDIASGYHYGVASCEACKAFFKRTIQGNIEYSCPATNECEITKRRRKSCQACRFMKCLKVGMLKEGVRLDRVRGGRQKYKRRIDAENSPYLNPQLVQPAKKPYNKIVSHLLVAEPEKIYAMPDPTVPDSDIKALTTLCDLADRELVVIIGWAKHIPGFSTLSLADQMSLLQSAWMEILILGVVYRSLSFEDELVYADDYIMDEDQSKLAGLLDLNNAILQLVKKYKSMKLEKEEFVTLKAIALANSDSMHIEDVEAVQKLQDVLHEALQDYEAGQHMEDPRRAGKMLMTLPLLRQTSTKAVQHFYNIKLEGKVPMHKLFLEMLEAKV
Briefly: co-IP; nuclear lysate of hiPSC-CMs overexpressing FLAG-ERRγ by adenovirus; lysis buffer 10 mM HEPES pH7.9, 3 mM MgCl2, 5 mM KCl, 150 mM NaCl, 0.5% NP-40, benzonase; antibody-conjugated magnetic beads, 90 min at 4 °C; immunoblot. (In general: Immunoblotting shows a protein as a band on a membrane.)

Test [3] deals with HA-tagged GATA-binding protein 4 (GATA4-HA) (human) (UniProt P43694). Briefly: co-IP; nuclear lysate of AD-293 transfected with GATA4-HA, 3xFLAG-ERRγ and PGC-1α-Myc/His; lysis buffer 10 mM HEPES pH7.9, 3 mM MgCl2, 5 mM KCl, 150 mM NaCl, 0.5% NP-40, benzonase; IP with antibodies to FLAG or HA epitope tags on magnetic beads, 30 min at 4 °C; immunoblot.

For the molecule “HA-tagged GATA4 G296S mutant (from UniProt P43694-1 1-442)”, the binding entry in test [1] is “binds”.

With “HA-tagged GATA-binding protein 4 (GATA4-HA) (from UniProt P43694-1 1-442)”, the binding result in test [1] is recorded as “binds”. Turning to “endogenous GATA-binding protein 4 (GATA4) of hiPSC-CMs (from UniProt P43694 1-442)”, in test [2], the binding entry is “binds”.

B1: peroxisome proliferator-activated receptor gamma coactivator 1 α tagged with Myc/His (PGC-1α-Myc/His) (protein, UniProt O70343 1-797)
chain: MAWDMCSQDSVWSDIECAALVGEDQPLCPDLPELDLSELDVNDLDTDSFLGGLKWCSDQSEIISNQYNNEPANIFEKIDEENEANLLAVLTETLDSLPVDEDGLPSFDALTDGAVTTDNEASPSSMPDGTPPPQEAEEPSLLKKLLLAPANTQLSYNECSGLSTQNHAANHTHRIRTNPAIVKTENSWSNKAKSICQQQKPQRRPCSELLKYLTTNDDPPHTKPTENRNSSRDKCASKKKSHTQPQSQHAQAKPTTLSLPLTPESPNDPKGSPFENKTIERTLSVELSGTAGLTPPTTPPHKANQDNPFKASPKLKPSCKTVVPPPTKRARYSECSGTQGSHSTKKGPEQSELYAQLSKSSGLSRGHEERKTKRPSLRLFGDHDYCQSLNSKTDILINISQELQDSRQLDFKDASCDWQGHICSSTDSGQCYLRETLEASKQVSPCSTRKQLQDQEIRAELNKHFGHPCQAVFDDKSDKTSELRDGDFSNEQFSKLPVFINSGLAMDGLFDDSEDESDKLSYPWDGTQPYSLFDVSPSCSSFNSPCRDSVSPPKSLFSQRPQRMRSRSRSFSRHRSCSRSPYSRSRSRSPGSRSSSRSCYYYESSHYRHRTHRNSPLYVRSRSRSPYSRRPRYDSYEAYEHERLKRDEYRKEHEKRESERAKQRERQKQKAIEERRVIYVGKIRPDTTRTELRDRFEVFGEIEECTVNLRDDGDSYGFITYRYTCDAFAALENGYTLRRSNETDFELYFCGRKQFFKSNYADLDTNSDDFDPASTKSKYDSLDFDSLLKEAQRSLRR
Consider B1, for which the values for the binding entry in test [3] and in test [1] were “no binding” and “binds”, respectively.
